Publication PMC7245567 (Journal of molecular biology, 2020)

Biological target: the molecule itself
Assay: NMR 15N spin relaxation

B1: cHSP27, the isolated α-crystallin domain (ACD) of human HSP27 (HSPB1), […], with the C137S mutation (domain or fragment)
chain: not shown
  stoichiometry N: 2
